Where a chain is given by its changes, count along the chain named. This is one part of the list.
T1: RBFOX1 RRM RbFoxmut (Fox-RRM*) (Homo sapiens, UniProt Q9NWB1 109-208, R118D;E147R;N151S;E152T)
T1 sequence: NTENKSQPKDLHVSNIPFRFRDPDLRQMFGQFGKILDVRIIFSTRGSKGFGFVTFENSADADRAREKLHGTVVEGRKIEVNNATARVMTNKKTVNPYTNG

B1: AUCGUGC (DNA:RNA)
RNA: GGGAGACCGGAAUUCAGAUUGUCCAUCGUGCUUAAAUCCCGUCGUAGCCACCA
DNA 1: CAATCTGAATTCCGGTCTCCC
DNA 2: TGGTGGCTACGACGGGATT
B2: GAACUGC (DNA:RNA)
RNA: B1 RNA with A25G, U26A, C27A, G28C
DNA 1: CAATCTGAATTCCGGTCTCCC
DNA 2: TGGTGGCTACGACGGGATT
B3: UUUUUAG (DNA:RNA)
RNA: B1 RNA with A25U, C27U, G28U, G30A, C31G
DNA 1: CAATCTGAATTCCGGTCTCCC
DNA 2: TGGTGGCTACGACGGGATT
B4: CAUAUCU (DNA:RNA)
RNA: B1 RNA with A25C, U26A, C27U, G28A, G30C, C31U
DNA 1: CAATCTGAATTCCGGTCTCCC
DNA 2: TGGTGGCTACGACGGGATT
B5: GGCCGCG (DNA:RNA)
RNA: B1 RNA with A25G, U26G, G28C, U29G, G30C, C31G
DNA 1: CAATCTGAATTCCGGTCTCCC
DNA 2: TGGTGGCTACGACGGGATT
B6: CAGCUCC (DNA:RNA)
RNA: B1 RNA with A25C, U26A, C27G, G28C, G30C
DNA 1: CAATCTGAATTCCGGTCTCCC
DNA 2: TGGTGGCTACGACGGGATT
B7: AUGCCUC (DNA:RNA)
RNA: B1 RNA with C27G, G28C, U29C, G30U
DNA 1: CAATCTGAATTCCGGTCTCCC
DNA 2: TGGTGGCTACGACGGGATT
B8: UCUAAGU (DNA:RNA)
RNA: B1 RNA with A25U, U26C, C27U, G28A, U29A, C31U
DNA 1: CAATCTGAATTCCGGTCTCCC
DNA 2: TGGTGGCTACGACGGGATT
B9: CCUAUUG (DNA:RNA)
RNA: B1 RNA with A25C, U26C, C27U, G28A, G30U, C31G
DNA 1: CAATCTGAATTCCGGTCTCCC
DNA 2: TGGTGGCTACGACGGGATT
B10: CAAUAAC (DNA:RNA)
RNA: B1 RNA with A25C, U26A, C27A, G28U, U29A, G30A
DNA 1: CAATCTGAATTCCGGTCTCCC
DNA 2: TGGTGGCTACGACGGGATT
B11: UCUGACU (DNA:RNA)
RNA: B1 RNA with A25U, U26C, C27U, U29A, G30C, C31U
DNA 1: CAATCTGAATTCCGGTCTCCC
DNA 2: TGGTGGCTACGACGGGATT
B12: CUCGGGC (DNA:RNA)
RNA: B1 RNA with A25C, U29G
DNA 1: CAATCTGAATTCCGGTCTCCC
DNA 2: TGGTGGCTACGACGGGATT
B13: ACUAACG (DNA:RNA)
RNA: B1 RNA with U26C, C27U, G28A, U29A, G30C, C31G
DNA 1: CAATCTGAATTCCGGTCTCCC
DNA 2: TGGTGGCTACGACGGGATT
B14: UCUCUCU (DNA:RNA)
RNA: B1 RNA with A25U, U26C, C27U, G28C, G30C, C31U
DNA 1: CAATCTGAATTCCGGTCTCCC
DNA 2: TGGTGGCTACGACGGGATT
B15: CUACAAC (DNA:RNA)
RNA: B1 RNA with A25C, C27A, G28C, U29A, G30A
DNA 1: CAATCTGAATTCCGGTCTCCC
DNA 2: TGGTGGCTACGACGGGATT
B16: UAGAUUA (DNA:RNA)
RNA: B1 RNA with A25U, U26A, C27G, G28A, G30U, C31A
DNA 1: CAATCTGAATTCCGGTCTCCC
DNA 2: TGGTGGCTACGACGGGATT
B17: GCAGACG (DNA:RNA)
RNA: B1 RNA with A25G, U26C, C27A, U29A, G30C, C31G
DNA 1: CAATCTGAATTCCGGTCTCCC
DNA 2: TGGTGGCTACGACGGGATT
B18: AAUUCCA (DNA:RNA)
RNA: B1 RNA with U26A, C27U, G28U, U29C, G30C, C31A
DNA 1: CAATCTGAATTCCGGTCTCCC
DNA 2: TGGTGGCTACGACGGGATT
B19: UGGCUAG (DNA:RNA)
RNA: B1 RNA with A25U, U26G, C27G, G28C, G30A, C31G
DNA 1: CAATCTGAATTCCGGTCTCCC
DNA 2: TGGTGGCTACGACGGGATT
B20: UUUGUAA (DNA:RNA)
RNA: B1 RNA with A25U, C27U, G30A, C31A
DNA 1: CAATCTGAATTCCGGTCTCCC
DNA 2: TGGTGGCTACGACGGGATT
B21: ACCGCGA (DNA:RNA)
RNA: B1 RNA with U26C, U29C, C31A
DNA 1: CAATCTGAATTCCGGTCTCCC
DNA 2: TGGTGGCTACGACGGGATT
B22: UAUCCCC (DNA:RNA)
RNA: B1 RNA with A25U, U26A, C27U, G28C, U29C, G30C
DNA 1: CAATCTGAATTCCGGTCTCCC
DNA 2: TGGTGGCTACGACGGGATT
B23: GGCUUGU (DNA:RNA)
RNA: B1 RNA with A25G, U26G, G28U, C31U
DNA 1: CAATCTGAATTCCGGTCTCCC
DNA 2: TGGTGGCTACGACGGGATT
B24: CCGCAAU (DNA:RNA)
RNA: GGGAGACCGGAAUUCAGAUUGUCCCCGCAAUUUAAAUCCCGUCGUAGCCACCA
DNA 1: CAATCTGAATTCCGGTCTCCC
DNA 2: TGGTGGCTACGACGGGATT
B25: AAGGGCA (DNA:RNA)
RNA: B1 RNA with U26A, C27G, U29G, G30C, C31A
DNA 1: CAATCTGAATTCCGGTCTCCC
DNA 2: TGGTGGCTACGACGGGATT
B26: CUCCAGU (DNA:RNA)
RNA: B24 RNA with C26U, G27C, A30G
DNA 1: CAATCTGAATTCCGGTCTCCC
DNA 2: TGGTGGCTACGACGGGATT
B27: AUUCCGU (DNA:RNA)
RNA: B1 RNA with C27U, G28C, U29C, C31U
DNA 1: CAATCTGAATTCCGGTCTCCC
DNA 2: TGGTGGCTACGACGGGATT
B28: CGGUCAC (DNA:RNA)
RNA: B24 RNA with C26G, C28U, A29C, U31C
DNA 1: CAATCTGAATTCCGGTCTCCC
DNA 2: TGGTGGCTACGACGGGATT
B29: GGUGUGG (DNA:RNA)
RNA: B1 RNA with A25G, U26G, C27U, C31G
DNA 1: CAATCTGAATTCCGGTCTCCC
DNA 2: TGGTGGCTACGACGGGATT
B30: CCGCGCG (DNA:RNA)
RNA: B24 RNA with A29G, A30C, U31G
DNA 1: CAATCTGAATTCCGGTCTCCC
DNA 2: TGGTGGCTACGACGGGATT
B31: UCAUGGA (DNA:RNA)
RNA: B1 RNA with A25U, U26C, C27A, G28U, U29G, C31A
DNA 1: CAATCTGAATTCCGGTCTCCC
DNA 2: TGGTGGCTACGACGGGATT

Molecular target: T1, RBFOX1 RRM RbFoxmut (Fox-RRM*)
Assay: EMSA; HiTS-Eq, 1 nM pool, 10 min; buffer printed only for the single-RNA assays: 10 mM Tris pH 7.5, 150 mM NaCl, 3.4 mM EDTA, 0.001% NP-40, 30 C
Conditions: tags: His6 N-terminal (pET28a); label: 5' 32P
How it was run: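 Purified wild-type or mutant RbFox RRM at increasing concentrations was equilibrated with 1 nM of 5′-radiolabelled RNA carrying 7 randomized nucleotides for 10 min in 50 µL. Unbound RNA was separated by 8% native PAGE and sequenced. Relative association constants came from read-count changes of each RNA species compared with the control reaction, normalised to the cognate motif.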

Compared with B1, B2 is lower in binding signal: 0.196 KA relative to UGCAUGU for the first, 0.0791 KA relative to UGCAUGU for the second.

Compared with B3, B4 is lower in binding signal: 0.151 KA relative to UGCAUGU for the first, 0.0973 KA relative to UGCAUGU for the second.

First: B5
Second: B6
The binding signal of the first is higher: 0.101 KA relative to UGCAUGU for the first, 0.0583 KA relative to UGCAUGU for the second.

Compared with B7, B8 is higher in binding signal: 0.078 KA relative to UGCAUGU for the first, 0.0999 KA relative to UGCAUGU for the second.

First: B9
Second: B10
The binding signal of the first is lower: 0.0911 KA relative to UGCAUGU for the first, 0.0948 KA relative to UGCAUGU for the second.

First: B11
Second: B12
The binding signal of the first is lower: 0.0694 KA relative to UGCAUGU for the first, 0.0837 KA relative to UGCAUGU for the second.

Compared with B13, B14 is lower in binding signal: 0.146 KA relative to UGCAUGU for the first, 0.067 KA relative to UGCAUGU for the second.

First: B15
Second: B16
The binding signal of the first is lower: 0.0436 KA relative to UGCAUGU for the first, 0.109 KA relative to UGCAUGU for the second.

Compared with B17, B18 is lower in binding signal: 0.0932 KA relative to UGCAUGU for the first, 0.0771 KA relative to UGCAUGU for the second.

First: B19
Second: B20
The binding signal of the first is higher: 0.153 KA relative to UGCAUGU for the first, 0.152 KA relative to UGCAUGU for the second.

First: B21
Second: B22
The binding signal of the first is higher: 0.0683 KA relative to UGCAUGU for the first, 0.0611 KA relative to UGCAUGU for the second.

Compared with B23, B24 is lower in binding signal: 0.359 KA relative to UGCAUGU for the first, 0.0582 KA relative to UGCAUGU for the second.

First: B25
Second: B26
The binding signal of the first is lower: 0.061 KA relative to UGCAUGU for the first, 0.144 KA relative to UGCAUGU for the second.

First: B27
Second: B28
The binding signal of the first is higher: 0.0989 KA relative to UGCAUGU for the first, 0.0348 KA relative to UGCAUGU for the second.

Compared with B29, B30 is higher in binding signal: 0.137 KA relative to UGCAUGU for the first, 0.143 KA relative to UGCAUGU for the second.

B31 was tested, and the binding signal was 0.0546 KA relative to UGCAUGU.
